Assay results from patent US9777070B2, “Anti-PTK7 antibody-drug conjugates” (Pfizer Inc., priority 2014, dated 2017).

Legend:
[1] = test system: PTK7 on OE19 and OE21 cells; test: Flow cytometry staining of esophageal cancer cell lines with hu24; type: binding, human; conditions: OE19 cells; 5 μg/mL; versus isotype control
Method: (§1) In another experiment, the saporin assay was performed on two cell lines derived from esophageal cancers, OE19 and OE21 (Sigma Aldrich). To determine PTK7 expression on the cell lines, the cells were cultured and single cell suspensions were isolated using Versene (Invitrogen). […] Cells were washed again in PBS/2% FCS, then incubated at 1:200 with anti-human Alexa Fluor647 (Jackson Immunoresearch) for 20 minutes. Cells were washed again, resuspended in DAPI, and then analyzed on a BD FACSCanto to determine the change in mean fluorescence intensity (ΔMFI).

[2] = target: T1, PTK7 on OE19 and OE21 cells (Homo sapiens, UniProt Q13308); test: as above; type: binding; conditions: OE21 cells; 5 μg/mL; versus isotype control
T1 construct: cancer cell lines with endogenous expression of PTK7; endogenous in cells; host or cells: cultured cancer cell lines (e.g. H661, H446, U2OS, H520, H1048, OE19, OE21, H1975, EKVX)
T1 sequence (Q13308 31-1070): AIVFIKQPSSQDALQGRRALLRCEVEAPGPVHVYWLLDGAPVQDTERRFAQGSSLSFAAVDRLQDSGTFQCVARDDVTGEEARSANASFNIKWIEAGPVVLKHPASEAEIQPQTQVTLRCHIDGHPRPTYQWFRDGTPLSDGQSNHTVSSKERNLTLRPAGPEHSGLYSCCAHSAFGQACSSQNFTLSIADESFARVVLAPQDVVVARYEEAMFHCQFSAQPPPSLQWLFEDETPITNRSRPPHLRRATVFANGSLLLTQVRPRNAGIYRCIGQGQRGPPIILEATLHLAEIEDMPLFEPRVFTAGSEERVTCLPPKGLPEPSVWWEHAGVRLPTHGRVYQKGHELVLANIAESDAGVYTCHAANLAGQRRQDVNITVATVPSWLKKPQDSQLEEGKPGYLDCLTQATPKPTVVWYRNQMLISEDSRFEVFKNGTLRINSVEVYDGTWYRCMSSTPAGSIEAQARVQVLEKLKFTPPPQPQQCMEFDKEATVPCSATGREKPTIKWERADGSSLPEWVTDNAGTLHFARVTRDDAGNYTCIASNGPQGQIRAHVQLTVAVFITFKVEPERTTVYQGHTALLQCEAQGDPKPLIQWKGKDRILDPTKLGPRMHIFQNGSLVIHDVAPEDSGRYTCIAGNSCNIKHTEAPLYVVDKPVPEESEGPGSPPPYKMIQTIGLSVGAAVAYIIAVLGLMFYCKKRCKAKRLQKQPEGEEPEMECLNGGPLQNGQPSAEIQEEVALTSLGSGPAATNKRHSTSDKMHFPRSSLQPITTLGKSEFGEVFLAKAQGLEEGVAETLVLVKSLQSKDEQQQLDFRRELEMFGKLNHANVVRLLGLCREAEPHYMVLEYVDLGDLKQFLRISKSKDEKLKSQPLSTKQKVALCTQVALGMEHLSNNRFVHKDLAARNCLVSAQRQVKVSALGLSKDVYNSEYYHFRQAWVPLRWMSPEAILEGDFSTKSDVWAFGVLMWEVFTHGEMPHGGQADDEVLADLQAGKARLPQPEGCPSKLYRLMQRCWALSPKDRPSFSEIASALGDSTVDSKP
Method: as §1

B1: hu24 (antibody)
heavy: QVQLVQSGPEVKKPGASVKVSCKASGYTFTDYAVHWVRQAPGKRLEWIGVISTYNDYTYNNQDFKGRVTMTRDTSASTAYMELSRLRSEDTAVYYCARGNSYFYALDYWGQGTSVTVSS[letters of human IgG1 constant region omitted]
light: EIVLTQSPATLSLSPGERATLSCRASESVDSYGKSFMHWYQQKPGQAPRLLIYRASNLESGIPARFSGSGSGTDFTLTISSLEPEDFAVYYCQQSNEDPWTFGGGTKLEIKRTVAAPSVFIFPPSDEQLKSGTASVVCLLNNFYPREAKVQWKVDNALQSGNSQESVTEQDSKDSTYSLSSTLTLSKADYEKHKVYACEVTHQGLSSPVTKSFNRGEC
B1 was tested, and the “change in mean fluorescence intensity (ΔMFI)” value [1] was 0 and the “change in mean fluorescence intensity (ΔMFI)” value [2] was 5976.
